{"source": "PubChem BioAssay AID686979", "about": "(National Center for Advancing Translational Sciences (NCATS), 2013)", "note": "Hit rate of the full screen: of about 420,000 compounds, about 50,000 (12%) were called active. This list was built around the results that the source calls inconclusive (neither active nor inactive); the mix of calls is not that of the screen. Calls follow the shape of the dose curve; as a rule, active = well fitted inhibition curve with a large enough effect; inconclusive = small, poorly fitted or top-dose-only effect; inactive = flat fitted curve, though single readings scatter. No potency is given beside an inconclusive call; the fits are too rough. % is scaled to controls: 0 for no effect and ±100 for the full control effect; potency is read from the fitted curve at half-maximal effect; tags tell the direction and shape of the fitted curve."}
{"assay": "qHTS for Inhibitors of human tyrosyl-DNA phosphodiesterase 1 (TDP1): qHTS in cells in presence of CPT; also: nearly all actives have a fitted effect of over 55% in size", "conditions": "chicken DT40 Tdp1-/-;hTDP1 cells + 20 nM CPT, ATP luminescence, 48 h; activity change, negative = growth inhibition: at 46.2 µM (top of the series) unless noted", "in_short": "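Chicken DT40 Tdp1-/- cells stably complemented with human TDP1 were seeded at 400 cells/well in medium containing 20 nM camptothecin, exposed to pin-transferred compounds, and grown at 37 °C for at least 48 hr. Viability was read as ATP luminescence.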"}
{"smiles": "CC(C)Oc1ccc(CNC(=O)c2ccc3nc(SCc4ccc(F)cc4)n(C)c3c2)cc1", "activity change, negative = growth inhibition": "inactive: -19.1%"}
{"smiles": "NC(=O)c1cc([N+](=O)[O-])ccc1NCc1cccc2ccccc12", "Potency": "inconclusive [inhibitor, single point]"}
{"smiles": "COc1ccc(/C=N/NC(=O)c2cccc([N+](=O)[O-])c2)cc1OS(=O)(=O)c1ccccc1", "Potency": "inconclusive [inhibitor, single point]"}
{"smiles": "Cc1ccc(C)c(NC(=O)CCc2c(C)n(C)c3cc(-c4ccccc4C)nn3c2=O)c1", "Potency": "active: 20.6 µM"}
{"smiles": "C[C@]12c3[nH]c4cc(-c5ccco5)ccc4c3CCN1C(=O)[C@@H](CC(=O)NCc1cccc(C(F)(F)F)c1)C[C@@H]2C(=O)N1CCOCC1", "Potency": "inconclusive [inhibitor, single point]"}
{"smiles": "O=C(N/N=C/c1[nH]c2ccccc2c1Cl)c1cccc(Br)c1", "activity change, negative = growth inhibition": "inactive: 4.09%"}
{"smiles": "O=C(NN=C1CCCC1)c1[nH]c2ccc(Br)cc2c1-c1ccccc1", "Potency": "inconclusive [inhibitor, single point]"}
{"smiles": "CCN1CCCC1CNCc1ccc(Cl)cc1Cl", "note": "(stereo not given)", "activity change, negative = growth inhibition": "inactive: -6.23%"}
{"smiles": "Cc1[nH]nc(-c2ccc(OCc3cnn(-c4ccccc4)c3)c(C)c2O)c1Oc1ccccc1", "activity change, negative = growth inhibition": "inactive: -25.8%"}
{"smiles": "CC1CCC(NS(=O)(=O)c2ccc(N3CCCC3=O)cc2)CC1", "note": "(stereo not given)", "Potency": "inconclusive [inhibitor, single point]"}
{"smiles": "O=C(NC(=S)NNC(=O)c1cnccn1)c1ccc(F)cc1", "Potency": "active: 3.26 µM"}
{"smiles": "O=C(NCCc1ccc(Cl)cc1)c1ccc2c(c1)N(Cc1ccccc1)CCS2", "Potency": "active: 16.4 µM"}
{"smiles": "COc1cccc(N2CCN(C(=O)c3ccc(CS(=O)c4cccc(Cl)c4)o3)CC2)c1", "note": "(stereo not given)", "Potency": "active: 0.517 µM"}
{"smiles": "Cc1cc2oc(=O)cc(CN3CCCCC3)c2cc1C(C)C", "Potency": "inconclusive [inhibitor, single point]"}
{"smiles": "Cc1cc(C)nc(Nc2cc([N+](=O)[O-])ccc2C)n1", "activity change, negative = growth inhibition": "inactive: 8.55%"}
{"smiles": "COc1cccc(N2CCN(C(=O)c3cc4cc(Cl)ccc4[nH]3)CC2)c1", "Potency": "inconclusive [inhibitor, partial curve]"}
{"smiles": "O=C(Nc1ccc(N2CCCC2)c(Cl)c1)c1ccco1", "Potency": "inconclusive [inhibitor, single point]"}
{"smiles": "COc1ccc(NC(=O)CN(C)S(=O)(=O)c2ccc3[nH]c4c(c3c2)CCCC4)cc1OC", "Potency": "inconclusive [inhibitor, single point]"}
{"smiles": "C=CCNC(=O)C1CC(=O)N(c2ccc(OCC(=O)Nc3c(C)cccc3C)cc2)C1", "note": "(stereo not given)", "activity change, negative = growth inhibition": "inactive: -1.23%"}
{"smiles": "Cc1ccc(Nc2ccc(C(=O)N3CCCC3)cn2)c(C)c1", "Potency": "inconclusive [inhibitor, single point]"}
{"smiles": "CCOC(=O)C1=CC[C@@H](c2ccc([N+](=O)[O-])cc2)N(S(=O)(=O)c2ccc(C)cc2)[C@H]1c1ccccc1", "Potency": "inconclusive [inhibitor, single point]"}
{"smiles": "O=C(CCC1CCCC1)N1CCN(C(=O)COc2ccccc2)CC1", "Potency": "inconclusive [inhibitor, single point]"}
{"smiles": "COc1ccc(N=C2SC(C(=O)N3CCN(c4ccc([N+](=O)[O-])cc4)CC3)CC(=O)N2C)cc1", "note": "(stereo not given)", "Potency": "inconclusive [inhibitor, single point]"}
{"smiles": "Cc1ccc(C)c(Cn2c3ccccc3c3cnn(CC(=O)N4CCCCC4)c(=O)c32)c1", "Potency": "inconclusive [inhibitor, single point]"}
{"smiles": "CCCN1C(C(=O)c2ccccc2)=C(OC(=O)c2ccc(F)cc2)c2ccccc2S1(=O)=O", "Potency": "active: 5.17 µM"}
{"smiles": "CCOc1ccc(C2NC(=O)NC(C)=C2C(=O)OCc2ccccc2)cc1", "note": "(stereo not given)", "activity change, negative = growth inhibition": "inactive: -29.3%"}
{"smiles": "COc1ccc(-n2c(=O)[nH]c3cc(C(=O)NCCc4ccc(OC)c(OC)c4)ccc3c2=O)c(OC)c1", "activity change, negative = growth inhibition": "inactive: -11.1%"}
{"smiles": "COc1ccc(OC)c2sc(NC(=O)c3ccc(S(=O)(=O)N(C)C)cc3)nc12", "Potency": "inconclusive [inhibitor, full curve, poor fit]"}
{"smiles": "CN(C)c1nc(N)nc(CSc2nc3cc(Cl)ccc3o2)n1", "activity change, negative = growth inhibition": "inactive: -19.1%"}
{"smiles": "O=C1CCC(C(=O)OCc2cc(Cl)ccc2OC(F)F)N1", "note": "(stereo not given)", "Potency": "inconclusive [inhibitor, single point]"}
{"smiles": "COc1ccc(-c2nc(-c3cccc(C)c3)nc(N3CCN(C)CC3)c2C#N)cc1", "Potency": "active: 14.6 µM"}
{"smiles": "Cn1c(=O)n(C)c2cc(NC(=O)COc3ccc(F)cc3)ccc21", "Potency": "inconclusive [inhibitor, single point]"}
{"smiles": "COc1ccc(CCN(C(=O)C(F)(F)F)C(C(=O)NC2CCCC2)c2cccs2)cc1", "note": "(stereo not given)", "Potency": "active: 6.51 µM"}
{"smiles": "CC1C(=O)N(Cc2cn(CC3CCCCC3)nn2)CCS(=O)(=O)N1Cc1ccc(-c2ccccc2)cc1", "note": "(stereo not given)", "Potency": "active: 23.1 µM"}
{"smiles": "Cc1ccc(NC(=O)CCS(=O)(=O)c2cccc3nonc23)c(C)c1", "activity change, negative = growth inhibition": "inactive: -10.8%"}
{"smiles": "CC(C)c1ccc(C2=CC(c3cccc(Cl)c3)n3ncnc3N2)cc1", "note": "(stereo not given)", "Potency": "inconclusive [inhibitor, single point]"}
{"smiles": "COc1ccc(C)cc1N(CC(=O)NC(C)c1ccccc1)S(C)(=O)=O", "note": "(stereo not given)", "activity change, negative = growth inhibition": "inactive: 6.36%"}
{"smiles": "CCCCCn1c(=O)[nH]c2cc(C(=O)N3CCN(c4ccc(F)cc4)CC3)ccc2c1=O", "Potency": "inconclusive [inhibitor, single point]"}
{"smiles": "CCCCCCCCCn1c2c(c(=N)c3c1CCC3)CCCC2", "Potency": "active: 0.0259 µM"}
{"smiles": "O=S(=O)(NCC(Nc1ccccc1)c1ccccc1)c1ccc(Cl)cc1", "note": "(stereo not given)", "Potency": "inconclusive [inhibitor, single point]"}
{"smiles": "CC(SC1=NCCS1)C(=O)Nc1nnc(-c2ccc(Br)cc2)s1", "note": "(stereo not given)", "Potency": "inconclusive [inhibitor, single point]"}
{"smiles": "O=C(N/N=C/c1ccsc1)c1c[nH]c2ccccc12", "activity change, negative = growth inhibition": "inactive: -14.6%"}
{"smiles": "CC(C)(C)c1ccccc1NC(=O)Nc1nc(C(N)c2ccccc2)cs1", "note": "(stereo not given)", "Potency": "inconclusive [inhibitor, single point]"}
{"smiles": "Cn1c(/C=C/c2ccc(Br)cc2)c([N+](=O)[O-])c(=O)n(C)c1=O", "Potency": "active: 8.2 µM"}
{"smiles": "CCc1ccc(NC(=O)CNC(=O)c2nn(-c3ccc(OC)cc3)c(=O)c3ccccc23)cc1", "activity change, negative = growth inhibition": "inconclusive: -30.8% [inhibitor]"}
